The source of these data is PubChem BioAssay AID326 (DTP/NCI, 2004).

Molecules are shown by their SMILES. Inconclusive results and toxic doses are left out. Not every entry of the source has a single result; some have several. This is not the full list of results. There may be further records. The values listed for one entry repeat one measurement in other runs, samples, wells, individuals or studies.

This assay concerns CD2F1 mice, P388/DHAQ leukemia ip, median survival T/C. In words: NCI In Vivo Anticancer Drug Screen. Data for tumor model P388 Leukemia resistant to Dihydroxy Anthracenedione; NSC 299195 (intraperitoneal) in CD2F1 (CDF1) mice. The following applies: endpoint: median survival time, vehicle: saline, higher = longer survival. As to the method: The antitumor activity of compounds was measured in mice bearing transplantable tumors. Survival or tumor size were measured and the results are expressed as the measurement made in the treated group (T) divided by the measurement made in the vehicle treated control group (C). The tumor model used in this assay is P388 Leukemia resistant to Dihydroxy Anthracenedione; NSC 299195 (intraperitoneal) in CD2F1 (CDF1) mice

Turning to `O=c1[nH]cc(F)c(=O)[nH]1`, the T/C is 107 % of control and 160 % of control (dose: 21.6 mg/kg/injection, schedule: Q04DX003 (ip)); 105 % of control and 156 % of control (dose: 36.0 mg/kg/injection, schedule: Q04DX003 (ip)).

For the molecule `N[C@@H](Cc1ccc(N(CCCl)CCCl)cc1)C(=O)O`, under “dose: 5.4 mg/kg/injection, schedule: Q04DX002 (ip)”, the T/C was 122 % of control and 165 % of control.
